Data on 84 molecules can be found in ChEMBL document CHEMBL4888484, “Replenishing the malaria drug discovery pipeline: Screening and hit evaluation of the MMV Hit Generation Library 1 (HGL1) against asexual blood stage Plasmodium falciparum ,using a nano luciferase reporter read-out” (2022).

About 540 (0.36%) of roughly 150,000 compounds showed an effect of 50% or more. This is one part of the list.

In the assay the test system is Plasmodium falciparum. Nature of the assay: Primary screen in NF54 nanoGlo assay, in single point, at 2uM, 72h; a lower Z score goes with more inhibition. The assay is classed as functional, Erythrocyte. The following applies: timepoint 72 hour.
By % Inhibition is commonly meant the relative decrease from the control value, in per cent. In the case of `CC(C)CN(Cc1nccn1Cc1ccc(Cl)cc1Cl)C(=O)c1ccccc1F`, the “% Inhibition” value turned out to be 0% and the Z score is given as 0.07.
Consider `Cc1cccc(CN2CCN(Cc3ccco3)C[C@H](C(=O)O)C2)c1`, for which the “% Inhibition” value is recorded as -2% and the Z score worked out at 0.35.
Turning to `O=C(c1nc(-c2ccc(S(=O)(=O)N3CCCCC3)cc2)no1)N1CCCCC1`, the “% Inhibition” value is -13% and the Z score was 1.51.
For the molecule `CN1CCN(C(=O)c2cnnn2C)C(C)(C)C1`, the “% Inhibition” value stood at 1% and the Z score was -0.1.
For `O=C1c2cccnc2CN1Cc1nncn1CCc1ccccc1`, the “% Inhibition” value is given as -14% and the Z score was 1.32.
In the same order, the values of `CCN(Cc1nc(C)no1)C(=O)Nc1ccc(OC[C@H]2CCCCO2)cc1` are 16% and -2.08.
In the same order, the values of `Cc1c(CCC(=O)N[C@H]2CCCc3sc(Cl)cc32)cnn1C` are 0% and -0.09.
Take `Cc1cc(C2CC2)nc(NS(=O)(=O)c2c(Cl)ccc(C)c2Cl)n1`: the “% Inhibition” value is reported as -1% and the Z score turned out to be 0.23.
For `O=C(NCC1(c2ccc(F)cc2F)CC1)C1(O)CCCC1`, the “% Inhibition” value was -9% and the Z score came out at 1.19.
In the same order, the values of `N#Cc1ncn(CC(=O)N2CCC(Cc3ccccc3)CC2)c1C#N` are 3% and -0.38.
In the same order, the values of `O=C(NC1(c2cn(-c3cccc(Cl)c3)nn2)CCCCC1)c1cn(-c2cccc(Cl)c2)nn1` are 3% and -0.37.
On to `Cc1nccn1CCCCNC(=O)N1CCCCCC1`, for which the “% Inhibition” value is given as -3% and the Z score stood at 0.31.
Take `COC(=O)c1c(F)ccc(Cl)c1N`: the “% Inhibition” value worked out at 0% and the Z score is 0.
In the same order, the values of `Cc1noc(NS(=O)(=O)c2c(C)nn(CC(C)C)c2C)c1C` are -5% and 0.83.
Take `CC(C)(C)NC(N)=NCc1ccsc1`: the “% Inhibition” value is recorded as -17% and the Z score is recorded as 3.1.
Regarding `O=C(NCCOc1ccccc1)c1ccc(CNS(=O)(=O)c2ccc3ccccc3c2)cc1`, the “% Inhibition” value is -1% and the Z score is on record as 0.23.
In the same order, the values of `COc1ccc([C@H]2C[C@H]3CC[C@@H](C2)N3C(=O)C2CCN(C(C)=O)CC2)cc1` are -4% and 0.95.
In the same order, the values of `CN1C[C@@H](NC(=O)N2CCCC2)C[C@H]1C(=O)NCc1ccncc1` are 2% and -0.47.
With `CCn1c(=O)c2sc(N3CCCC3)nc2n(CC(=O)Nc2ccc(F)cc2)c1=O`, the “% Inhibition” value is -21% and the Z score is 1.89.
For `CN1C(=O)[C@@H](c2ccccc2)CC12CCN(C(=O)c1ccccc1O)CC2`, the “% Inhibition” value is reported as -14% and the Z score is 1.29.
In the same order, the values of `Cc1nc(-c2ccccc2)n(CC(=O)Nc2ccc3c(c2)OCO3)c(=O)c1Cl` are -3% and 0.66.
Regarding `Cc1cccc(C(=O)N2C[C@H](F)C[C@H]2C(=O)N2CCOCC2)c1C`, the “% Inhibition” value is on record as -10% and the Z score is 1.39.
In the same order, the values of `Cc1cccc(NC(=O)COc2cccc(-c3noc(COc4cccc(C)c4)n3)c2)c1` are 14% and -1.77.
Take `COC(=O)c1ccc(CCC(=O)N[C@H]2CCCCNC2=O)cc1`: the “% Inhibition” value was -4% and the Z score is 0.51.
Regarding `COc1ccc(-c2cc(-c3nc4ccccc4[nH]3)c(-c3ccccc3)nn2)cc1OC`, the “% Inhibition” value stood at 3% and the Z score was -0.62.
For the molecule `CCCC1(CCC)CCC(CCC)(CCC)N1`, the “% Inhibition” value is recorded as -15% and the Z score was found to be 2.07.
Take `Cc1nc2ccccc2c(-c2ccc(Cl)cc2)c1C1=NN(C(=O)C(C)(C)C)[C@H](c2ccc(Cl)cc2)C1`: the “% Inhibition” value is -2% and the Z score worked out at 0.21.
For `CCC(CC)NS(=O)(=O)CC1CCCCC1`, the “% Inhibition” value is -3% and the Z score came to 0.32.
In the same order, the values of `Cn1cc([C@@H]2CC(=O)Nc3c2c(=O)[nH]n3C2CCCCCCC2)cn1` are -13% and 1.71.
In the same order, the values of `Cc1ccc(CNC(=O)Cn2nnc(C(=O)Nc3cc(Cl)ccc3C)c2C)cc1` are 29% and -3.27.
For the molecule `CCc1cc(=O)n2nc(NC(=O)C[C@H](n3cccn3)C(F)(F)F)[nH]c2n1`, the “% Inhibition” value is listed as -15% and the Z score is reported as 2.81.
Take `COc1cc(-c2nc(C(=O)N(C)C(C)C)cs2)ccc1OCc1ccc(F)cc1F`: the “% Inhibition” value was determined as 5% and the Z score was -0.91.
As for `CC(C)Cn1c(=O)n(C[C@H](C)N2CCCC2)c2cc(C(=O)O)cnc21`, the “% Inhibition” value is 0% and the Z score is given as -0.01.
In the same order, the values of `c1ccc(N2CCN(c3ncnc4c3CCC4)CC2)cc1` are -13% and 1.38.
As for `Cc1ccc(C(=O)N2CCC(c3nnco3)CC2)c(Cl)c1`, the “% Inhibition” value is reported as -13% and the Z score stood at 1.46.
In the case of `Cn1cc([C@@H]2CNCCN2C(=O)c2cccc(F)c2F)cn1`, the “% Inhibition” value is recorded as -1% and the Z score came to 0.06.
With `Cn1cccc1C(=O)NC(=O)Cn1cnc(C#N)n1`, the “% Inhibition” value is on record as -7% and the Z score was 1.04.
In the same order, the values of `O=C(Cc1c[nH]c2ccccc12)N[C@H]1CCCN(c2cc(-c3ccccc3)n[nH]2)C1` are -12% and 1.24.
In the case of `O=S(=O)(NCCCn1cccn1)N1CCCCC1`, the “% Inhibition” value is recorded as -8% and the Z score was found to be 1.1.
In the same order, the values of `CCCN(CCC)C(=O)NC(=O)c1ccccc1` are -8% and 1.44.
For `C[C@@H]1CN(C(=O)CN(C)Cc2cc[nH]n2)C[C@H](C)O1`, the “% Inhibition” value is recorded as -8% and the Z score was 1.58.
In the same order, the values of `COc1ccc(N/C(=N/S(C)(=O)=O)NC2CCCCCC2)cc1OC` are 4% and -0.52.
With `CCN(CC)[C@@H](CNC(=O)CCc1c(C)nn(C)c1C)c1ccco1`, the “% Inhibition” value is listed as 33% and the Z score is recorded as -4.43.
Turning to `NC(=O)c1ccc(C(=O)N[C@H]2CC[C@H](Nc3nccc(C(F)(F)F)n3)CC2)[nH]1`, the “% Inhibition” value was 12% and the Z score is -1.88.
As for `N#Cc1ncn(CC(=O)N[C@@H]2C[C@H]2C2CCCCC2)n1`, the “% Inhibition” value stood at 4% and the Z score is -0.55.
In the same order, the values of `Cc1ccc(C2OCCCC2NC(=O)c2ccc(C(=O)O)nc2)cc1` (stereo not drawn) are 6% and -0.82.
In the same order, the values of `c1ccc(C[C@H](NCCCc2nnn[nH]2)C2CCCCC2)cc1` are -8% and 1.11.
In the same order, the values of `CCN(CC)C(=O)c1csc(-c2ccc(OCc3cc(F)ccc3F)c(OC)c2)n1` are -11% and 1.99.
On to `Cc1nnsc1CN(C)C(=O)c1cc2ccccc2n1C`, for which the “% Inhibition” value was -14% and the Z score was 2.35.
In the case of `Cc1ccsc1-c1nc(CN2CCc3c(c(CO)nn3C)C2)c(C)o1`, the “% Inhibition” value was 2% and the Z score is on record as -0.41.
Take `CN(Cc1ccc(-c2cc(C(C)(C)C)nc(N)c2C#N)o1)S(C)(=O)=O`: the “% Inhibition” value is given as -13% and the Z score came to 2.23.
As to `O=C(Nc1cc(-c2ccccc2)ns1)c1ccco1`, the “% Inhibition” value is given as -4% and the Z score came to 0.42.
For `O=C(C[n+]1nc(-c2n[n+](CC(=O)c3ccccc3)c3n2CCCCC3)n2c1CCCCC2)c1ccccc1`, the “% Inhibition” value was 6% and the Z score is listed as -1.08.
Take `N=C(NC(=O)c1ccccc1F)Nc1nc2ccccc2o1`: the “% Inhibition” value stood at 1% and the Z score was -0.05.
In the same order, the values of `CCCN(Cc1cccnc1)C(=O)c1cnc(-c2csc(C)n2)nc1O` are -6% and 1.19.
With `O=C(c1nc2ccccc2[nH]1)N1CC[C@H](N2CCCCC2)C1`, the “% Inhibition” value is given as -6% and the Z score was 0.59.
In the same order, the values of `Cn1cncc1CC(=O)N1CCN(Cc2ccccc2)C(=O)C1(C)C` are -14% and 1.91.
With `Cc1ccc2oc(N3CCC(NCCc4ccnn4C)CC3)nc2c1`, the “% Inhibition” value was -3% and the Z score turned out to be 0.39.
In the same order, the values of `O=C(NC1CCN(Cc2ccccc2F)CC1)C1(N2CCCCC2)CCCCC1` are -8% and 1.12.
In the same order, the values of `COc1ccc(C2CC(c3ccc(Cl)cc3)N(C(C)=O)c3ncnn32)cc1` (stereo not drawn) are 27% and -3.03.
In the same order, the values of `CC(C)(C)C1OCCCC1CNC(=O)N1CCC2CCCCC21` (stereo not drawn) are -6% and 1.16.
Consider `Cn1c([C@H]2CCN(Cc3ncc[nH]3)C2)nc2ccccc21`, for which the “% Inhibition” value is listed as -3% and the Z score amounted to 0.41.
Consider `Cc1ncc(C(=O)N2CCC(Oc3ccc(Cl)cc3)CC2)c(C)n1`, for which the “% Inhibition” value was -11% and the Z score amounted to 1.95.
In the case of `COCCn1cc(C(=O)NC[C@H](O)c2ccc(Cl)cc2)c(C)n1`, the “% Inhibition” value is listed as 1% and the Z score is -0.14.
Consider `CCCc1cc(C(=O)NCCN2CCCCC2)cs1`, for which the “% Inhibition” value is reported as -18% and the Z score came out at 2.61.
In the same order, the values of `CCOc1ccc(Br)cc1N` are -7% and 1.36.
On to `Cc1cc(C)c2c(c1)-c1c(ssc1=S)C(C)(C)N2C(=O)[C@H](Cc1ccccc1)N1C(=O)c2ccccc2C1=O`, for which the “% Inhibition” value was -5% and the Z score came to 0.67.
Regarding `COc1cnc(NC(=O)N2CCO[C@@H](CS(C)(=O)=O)C2)s1`, the “% Inhibition” value was -12% and the Z score was 2.4.
In the same order, the values of `CCn1cc([C@@H]2CC(=O)Nc3cc(Oc4ccccc4)ccc32)c(C)n1` are -3% and 0.66.
As for `CCCn1cc(CN/C(=N\c2ccc(OC)cc2)NC(=O)c2cccc(Cl)c2)c(C)n1`, the “% Inhibition” value is -8% and the Z score is listed as 1.33.
In the same order, the values of `Cc1csc(CNC(=O)c2ccccc2C(=O)c2ccc(F)cc2)n1` are -2% and 0.39.
In the same order, the values of `CC(=O)Nc1cccc(NC(=O)Cn2ccc(-c3ccccc3)n2)c1` are -5% and 0.99.
For the molecule `Cc1ncc(Cl)c(C(=O)OCCn2cccn2)n1`, the “% Inhibition” value was -2% and the Z score was 0.27.
In the same order, the values of `Cc1n[nH]c(C(=O)NC(c2ccccc2)C2CCOC2)c1C` (stereo not drawn) are -5% and 1.03.
`CCCn1cnc(C(N)=O)c1NC(=O)CCc1c(C)noc1C`: the “% Inhibition” value is given as -10% and the Z score turned out to be 1.44.
In the same order, the values of `COc1cccc(-n2nc(C)c(CCC(=O)NCC3(N4CCOCC4)CCCCC3)c2C)c1` are 2% and -0.28.
On to `Cc1nn(C)c2nc(-c3ccco3)cc(C(=O)N(Cc3nc4ccccc4c(=O)[nH]3)C(C)C)c12`, for which the “% Inhibition” value is on record as -8% and the Z score came out at 1.09.
In the same order, the values of `N#CC1(NC(=O)[C@H]2CC(=O)N(c3cc(F)cc(F)c3)C2)CCOCC1` are -7% and 0.98.
Consider `O=C1NCCCc2occ(C(=O)N3CC[C@H](C(F)(F)F)C3)c21`, for which the “% Inhibition” value is -12% and the Z score amounted to 2.56.
For the molecule `OC1(CNc2cncc(-n3cccn3)n2)CCOCC1`, the “% Inhibition” value is -14% and the Z score turned out to be 1.45.
Take `O=C(Nc1ccnn1C1CCN(Cc2ccc3c(c2)OCCO3)CC1)C1CCCC1`: the “% Inhibition” value is given as 7% and the Z score is recorded as -1.29.
In the same order, the values of `COc1ccc(NC(=O)c2cccn2Cc2noc(C)n2)cc1Cl` are -8% and 1.26.
In the same order, the values of `COCCc1nc(-c2cccc(N(C)C)c2)n(CC(F)(F)F)n1` are -3% and 0.57.
Regarding `Cc1ccc([C@H]2CN(Cc3cccc(OCCO)c3)C[C@@H]2N(C)C)cc1`, the “% Inhibition” value is -13% and the Z score turned out to be 1.5.
